{"source": "the RNAGym collection of RNA variant scans (doi:10.7554/elife.90254)", "parents": {"B1": {"name": "OR4K15 (parent)", "chain": "GUUAACGGUCAUAGGCCAUGGAAACUAGGAGCACCAUUUCGCUGCCAGUGAAGAAAUGAACAAAGAAAAUCUGGGCCAGGCAGGCAUCAAAAGAAAUAGUCUUGCGCUCAACCAGAAAGUCUGUAAUCAUUUUAAGGGUA"}}, "note": "Read counts are not given, so values of variants with three or more changes are uncertain.", "data": [{"variants_of": "B1", "assay": "self-cleavage, relative activity (ratio to wild type); higher = more cleavage; in vitro, sequencing; the parent is a self-cleaving ribozyme", "values": [{"variant": "A18G A66U A78U U130C", "self-cleavage": 0.33}, {"variant": "A18G A62U U100C A118G", "self-cleavage": 0.62}, {"variant": "A18G A86G U132C A140G", "self-cleavage": 1.59}, {"variant": "A18U U19C A30G A69G A78U U103C U131C", "self-cleavage": 0.1}, {"variant": "A18G U87A U100C U108A U132A", "self-cleavage": 0}, {"variant": "A18G U49C A95G", "self-cleavage": 1.68}, {"variant": "A18U A24G A33G U87C U97A", "self-cleavage": 1.33}, {"variant": "A18G A89C A117G", "self-cleavage": 1.39}, {"variant": "A18G U103C U131A U139A", "self-cleavage": 0.74}, {"variant": "A18U A22G A60G U120A", "self-cleavage": 0.75}, {"variant": "A18U A78G U108A U139A", "self-cleavage": 0.03}, {"variant": "A18U U19C U100A U130C", "self-cleavage": 0.23}, {"variant": "A18G U49C A90G", "self-cleavage": 0.99}, {"variant": "A18U G41U A92G", "self-cleavage": 0.51}, {"variant": "A18U A66G A111U C112U", "self-cleavage": 0.01}, {"variant": "A18G A68G U132C U139C", "self-cleavage": 1.55}, {"variant": "A18G A67G A96G", "self-cleavage": 1.62}, {"variant": "A18U A56G A92U U132C", "self-cleavage": 2.04}, {"variant": "A18U A52U A62G", "self-cleavage": 1.56}, {"variant": "A18G U57C A64G U122C U127A", "self-cleavage": 1.29}, {"variant": "A18G U37A A94C U132C", "self-cleavage": 1.46}, {"variant": "A18G U70C A91G A95G", "self-cleavage": 0.18}, {"variant": "A18U A24U A63U A82G A94C", "self-cleavage": 0.36}, {"variant": "A18U A30G U72C", "self-cleavage": 0.3}, {"variant": "A18U A23G A63U", "self-cleavage": 1.23}, {"variant": "A18U A51U A55G U103C G104A A117G", "self-cleavage": 0}, {"variant": "A18G G29C A30U U38C", "self-cleavage": 1.27}, {"variant": "A18U A22G A51G U122C", "self-cleavage": 0.92}, {"variant": "A18G U43C U57C A66U U102C", "self-cleavage": 1.87}, {"variant": "A18U A54G U103C", "self-cleavage": 0.45}, {"variant": "A18G G75A C77U A117G A135U", "self-cleavage": 0.09}, {"variant": "A18U U43A U49A A64G A110U A116G", "self-cleavage": 0.43}, {"variant": "A18G G20A G84A U122A", "self-cleavage": 1.42}, {"variant": "A18U U57C A64G", "self-cleavage": 1.75}, {"variant": "A18U U39C A56G U130C", "self-cleavage": 1.53}, {"variant": "A18G U49A A54G A82G A110G A111G U122A", "self-cleavage": 0.04}, {"variant": "A18U U43C A51C A116G", "self-cleavage": 1.14}, {"variant": "A18G C42U A59C", "self-cleavage": 0.98}, {"variant": "A18U A30U A67G U102C U124C U127C", "self-cleavage": 1.24}, {"variant": "A18U U39C A67G", "self-cleavage": 0.56}, {"variant": "A18U C85U A110C U124C", "self-cleavage": 0.01}, {"variant": "A18G A86G U87A U103A", "self-cleavage": 0.14}, {"variant": "A18U A55G A82G U87C U122C", "self-cleavage": 0.11}, {"variant": "A18G A69G A89G", "self-cleavage": 0.71}, {"variant": "A18U A116G U120C U131C", "self-cleavage": 0.09}, {"variant": "A18U A86G A92U", "self-cleavage": 0.86}, {"variant": "A18G U70A U87C A118U A125G", "self-cleavage": 0.23}, {"variant": "A18U A22G G41A", "self-cleavage": 1.13}, {"variant": "A18U G80U A116G", "self-cleavage": 0.24}, {"variant": "A18G U19C A30G A64G A68G", "self-cleavage": 0.08}, {"variant": "A18U A82G U131C", "self-cleavage": 0.17}, {"variant": "A18U A27G A52G A86U A91G U127C", "self-cleavage": 0.59}, {"variant": "A18U U19A A30U A118U U130C", "self-cleavage": 0.5}, {"variant": "A18U A51G A60G G80C A95G", "self-cleavage": 0.08}, {"variant": "A18G U43C A118U", "self-cleavage": 0.7}, {"variant": "A18G U38C C46U U57A", "self-cleavage": 1.53}, {"variant": "A18U A33U A52G A55G A56G C109A A117G", "self-cleavage": 0.31}, {"variant": "A18U U57C A60G G119U", "self-cleavage": 2.07}, {"variant": "A18U U122C A125G", "self-cleavage": 0.37}, {"variant": "A18U C45U A60G", "self-cleavage": 0.48}, {"variant": "A18U A23C A111G", "self-cleavage": 0.09}, {"variant": "A18G A66G A67G G123A", "self-cleavage": 1.19}, {"variant": "A18U U38C A67G A86U", "self-cleavage": 1.58}, {"variant": "A18G A67G A78G A86G", "self-cleavage": 0.36}, {"variant": "A18U A22G A51G U127C", "self-cleavage": 0.34}, {"variant": "A18G U130A U131C", "self-cleavage": 0.52}, {"variant": "A18U A22G U108C", "self-cleavage": 0.05}, {"variant": "A18U A24G U37C U49C A54G", "self-cleavage": 0.9}, {"variant": "A18U U49C A51G A95G", "self-cleavage": 1.36}, {"variant": "A18G U37A A129U", "self-cleavage": 0.48}, {"variant": "A18G U57C A67G C107G U124C U127A", "self-cleavage": 0.05}, {"variant": "A18U A51G G58A A68G A118U U131G", "self-cleavage": 0.37}, {"variant": "A18G A86G A117G", "self-cleavage": 2.03}, {"variant": "A18U A54G A95G A117G", "self-cleavage": 2.7}, {"variant": "A18G A63G C105U G136A", "self-cleavage": 0.29}, {"variant": "A18U U26C U39C", "self-cleavage": 1.17}, {"variant": "A18G U38C A56G A60C", "self-cleavage": 1.58}, {"variant": "A18U U102C C105A", "self-cleavage": 0.02}, {"variant": "A18U U26C A86G U108C A117G U130C U139A A140G", "self-cleavage": 0}, {"variant": "A18U A51U A92G A114G U120G", "self-cleavage": 0.07}, {"variant": "A18G G29U A54G A135G", "self-cleavage": 1.59}, {"variant": "A18U A23G U39A", "self-cleavage": 1.14}, {"variant": "A18U U87C A96U", "self-cleavage": 1.12}, {"variant": "A18U A24G A116G", "self-cleavage": 0.6}]}]}
